# Source: a collection of fitness landscapes (doi:10.1016/j.celrep.2020.107928)
# In all, about 81,000 sequences were measured (“one-hybrid fitness for binding NBS DNA”: median about -0.1, highest 2% from about 0.36 on). This is one part of the list.
# B1: Caulobacter ParB omega fusion; a variant is named by its letters at X, in order, B8GW30 (parent)
# chain: MESVVVGEPGMSEGRRGLGRGLSALLGEVDAAPAQAPGEQLGGSREAPIEILQRNPDQPRRTFREEDLEDLSNSIREKGVLQPILVRPSPDTAGEYQIVAGERAWRAAQRAGLKTVPIMVRELDDLAVLEIGIIENVQRADLNVLEEALSYKVLMEKFERTQENIAQTIGKSXSHVANXMRLLXLPDEVQSYLVSGELTAXHARAIAAAADPVALAKQIIEGGLSVRETEALARKAPNLSAGKSKGGRPPRVKDTDTQALESDLSSVLGLDVSIDHRGSTGTLTITYATLEQLDDLCNRLTRGI
# Variants of: B1
# Assay: one-hybrid fitness for binding NBS DNA (the Noc-binding site; scaled: cognate 1, non-cognate 0); higher = stronger binding
# Conditions: with NBS DNA site
# How it was run: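 In E. coli USO, a HIS3 reporter with its site placed 19 bp from the promoter was used to select Caulobacter ParB variants randomised at four specificity codons. Growth lasted 48 hours at 37°C on histidine-free M9 containing 0.1 mM IPTG and 5 mM 3-AT. Fitness was taken as the log change in variant-to-wild-type read ratio from Illumina sequencing of pre- and post-selection plasmids, rescaled between the non-cognate and cognate sites.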
row,Variant,one-hybrid fitness for binding NBS DNA
1,IRLD,≤ 0.2
2,MHAL,≤ 0.2
3,AMAW,≤ 0.2
4,QEPL,≤ 0.2
5,GNYC,≤ 0.2
6,DNLL,≤ 0.2
7,DMPV,≤ 0.2
8,QKEL,≤ 0.2
9,RWHN,≤ 0.2
10,HRLS,≤ 0.2
11,RKDH,0.401
12,KLMA,≤ 0.2
13,GARK,≤ 0.2
14,HEAS,≤ 0.2
15,VEPL,≤ 0.2
16,HYSL,≤ 0.2
17,HGRK,≤ 0.2
18,SRCA,≤ 0.2
19,GMTS,≤ 0.2
20,LRNT,0.22
21,AYKY,≤ 0.2
22,MNAP,≤ 0.2
23,RTPL,≤ 0.2
24,DRNP,≤ 0.2
25,GTFS,≤ 0.2
26,SMCH,≤ 0.2

row,Variant,one-hybrid fitness for binding NBS DNA
1,NLAL,≤ 0.2
2,RYRT,0.664
3,AMFD,≤ 0.2
4,QTGV,0.261
5,FIKT,≤ 0.2
6,YGDG,≤ 0.2
7,CFKT,≤ 0.2
8,YCLE,0.263
9,KAQH,≤ 0.2
10,AVVR,≤ 0.2
11,TRQL,≤ 0.2
12,ACPG,≤ 0.2
13,PNRE,≤ 0.2
14,YHLM,≤ 0.2
15,YWRE,≤ 0.2
16,LAGR,≤ 0.2
17,EVVI,≤ 0.2
18,QCIT,0.432
19,CILR,≤ 0.2
20,HCVV,≤ 0.2
21,PHQR,≤ 0.2
22,EANR,≤ 0.2
23,ATGI,≤ 0.2
24,HERT,≤ 0.2
25,MWPC,≤ 0.2
26,AYFW,≤ 0.2

row,Variant,one-hybrid fitness for binding NBS DNA
1,HHKG,≤ 0.2
2,SSQR,≤ 0.2
3,FVIS,≤ 0.2
4,YRVA,≤ 0.2
5,VVNL,≤ 0.2
6,DPAR,≤ 0.2
7,TPPS,≤ 0.2
8,TFRF,≤ 0.2
9,DRNN,≤ 0.2
10,YMMS,≤ 0.2
11,IYQR,≤ 0.2
12,KVLM,≤ 0.2
13,PGTD,≤ 0.2
14,VCLC,≤ 0.2
15,QMGN,≤ 0.2
16,AQKR,0.243
17,SCST,≤ 0.2
18,LEPN,≤ 0.2
19,DLGG,≤ 0.2
20,WKFC,≤ 0.2
21,TVNV,≤ 0.2
22,KRHN,≤ 0.2
23,NDSA,≤ 0.2
24,GWVA,≤ 0.2
25,HHPH,≤ 0.2
26,VWQR,≤ 0.2

row,Variant,one-hybrid fitness for binding NBS DNA
1,QLRK,0.336
2,FCLS,≤ 0.2
3,KSEV,≤ 0.2
4,IGSR,≤ 0.2
5,CAHS,≤ 0.2
6,HHHL,≤ 0.2
7,CRKN,≤ 0.2
8,MNLM,≤ 0.2
9,NDDR,≤ 0.2
10,KSGC,≤ 0.2
11,GAMM,≤ 0.2
12,NCLG,≤ 0.2
13,NQCC,≤ 0.2
14,NWYC,≤ 0.2
15,INHR,≤ 0.2
16,TARA,≤ 0.2
17,YPVI,≤ 0.2
18,IIHY,≤ 0.2
19,TRVM,≤ 0.2
20,PNRR,≤ 0.2
21,DAGR,≤ 0.2
22,GNKN,≤ 0.2
23,FRKP,≤ 0.2
24,LQVT,≤ 0.2
25,QLPG,≤ 0.2
26,QTMW,≤ 0.2

row,Variant,one-hybrid fitness for binding NBS DNA
1,HTRG,≤ 0.2
2,DADC,≤ 0.2
3,AHAA,≤ 0.2
4,SHEC,≤ 0.2
5,TYFC,≤ 0.2
6,ESDS,≤ 0.2
7,PTCR,≤ 0.2
8,RTFL,≤ 0.2
9,GERG,≤ 0.2
10,RLIT,0.23
11,LSDR,≤ 0.2
12,TPRF,≤ 0.2
13,EVKG,≤ 0.2
14,RLPA,≤ 0.2
15,TAMQ,≤ 0.2
16,VTVV,≤ 0.2
17,YHCR,≤ 0.2
18,DDCR,≤ 0.2
19,VKTK,≤ 0.2
20,TFAA,≤ 0.2
21,VGYR,≤ 0.2
22,HCVE,≤ 0.2
23,SRSQ,≤ 0.2
24,SVQT,≤ 0.2
25,VMRG,≤ 0.2
26,SWHT,≤ 0.2

row,Variant,one-hybrid fitness for binding NBS DNA
1,YQPN,≤ 0.2
2,VSMF,≤ 0.2
3,LYNY,≤ 0.2
4,RRDI,≤ 0.2
5,GIAR,≤ 0.2
6,KVQV,≤ 0.2
7,MRSK,≤ 0.2
8,VYDH,≤ 0.2
9,RLKQ,≤ 0.2
10,DTNR,≤ 0.2
11,AENT,≤ 0.2
12,TGWI,≤ 0.2
13,GFLD,≤ 0.2
14,RRHM,0.294
15,EPMG,≤ 0.2
16,SAPH,≤ 0.2
17,EAMT,≤ 0.2
18,KSVH,≤ 0.2
19,MAYL,≤ 0.2
20,LTKC,≤ 0.2
21,YLDT,≤ 0.2
22,QPAR,≤ 0.2
23,TLMV,≤ 0.2
